According to PMC4918322:
Positions count from the first letter of the chain named. These are yes or no findings as the source states them, for the method shown. Binding seen in cells or lysates may run through a third protein. Some binding calls cover weakened binding; strength is not graded here. Where a sequence is shown, tags or fusion partners need not be part of it.

Experiments:
Test in all cases: co-IP; RSF1 KO HeLa cells transfected with RSF1-C1-V5 constructs, paclitaxel 16 h; mitotic lysates immunoprecipitated with anti-V5 antibody, immunoblotting
[1] = molecular target: T1, V5-tagged RSF1-C1 (amino acids 627-1441) (human) (UniProt Q96T23)
T1 sequence: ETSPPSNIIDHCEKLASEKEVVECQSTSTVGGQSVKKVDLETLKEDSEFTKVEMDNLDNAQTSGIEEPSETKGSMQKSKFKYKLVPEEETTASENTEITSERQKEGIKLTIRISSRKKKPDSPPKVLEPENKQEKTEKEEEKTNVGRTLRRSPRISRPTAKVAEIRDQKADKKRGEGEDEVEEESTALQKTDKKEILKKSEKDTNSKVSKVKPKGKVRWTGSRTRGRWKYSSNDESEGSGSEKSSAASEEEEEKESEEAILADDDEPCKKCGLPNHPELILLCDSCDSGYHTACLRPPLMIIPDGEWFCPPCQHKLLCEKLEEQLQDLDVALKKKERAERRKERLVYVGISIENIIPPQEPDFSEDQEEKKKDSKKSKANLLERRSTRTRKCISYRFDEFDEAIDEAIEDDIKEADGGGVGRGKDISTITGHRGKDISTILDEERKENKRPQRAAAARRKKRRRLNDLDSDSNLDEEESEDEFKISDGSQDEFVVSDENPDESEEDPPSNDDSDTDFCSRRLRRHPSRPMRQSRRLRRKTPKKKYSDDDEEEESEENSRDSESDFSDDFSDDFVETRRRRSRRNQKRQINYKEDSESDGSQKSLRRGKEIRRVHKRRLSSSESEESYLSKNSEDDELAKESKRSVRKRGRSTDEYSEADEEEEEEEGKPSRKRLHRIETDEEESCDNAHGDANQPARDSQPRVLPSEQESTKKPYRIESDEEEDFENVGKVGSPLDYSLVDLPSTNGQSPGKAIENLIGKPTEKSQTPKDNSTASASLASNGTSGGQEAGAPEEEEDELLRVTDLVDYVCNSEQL

[2] = molecular target: T2, V5-tagged RSF1-C1 S1359A (human) (UniProt Q96T23)
T2 sequence: T1 sequence with S733A

[3] = molecular target: T3, V5-tagged RSF1-C1 S1359D (human) (UniProt Q96T23)
T3 sequence: T1 sequence with S733D

Measured: binding

endogenous PLK1 (from UniProt P53350 1-603)
binds: [1] | [2] | [3]
